The text below walks through data of PubChem BioAssay AID1508642 (National Center for Advancing Translational Sciences (NCATS), 2021).

Hit rate of the full screen: of about 43,000 compounds, about 200 (0.47%) were called active. Not shown: some 12% with an inconclusive outcome. The call rests on the fitted dose curve; in most records, active means well fitted cell-killing curve with a large enough effect; inconclusive means small, poorly fitted or top-dose-only effect, or effect the other way; inactive means flat fitted curve, though single readings scatter. The list shows a part of the results.
On the % scale 0 is the no-effect control and ±100 the full control effect.

The nature of the assay: Cell viability qHTS assay in S16 Pmp22-F2sN cells. Further: nearly all actives have a fitted effect of over 65% in size. As to conditions: S16 Pmp22-F2sN Schwann cells (luciferase reporters placed in the Pmp22 gene) viability, CellTiter-Glo, 24 h; series mostly up to 57.5 µM; activity change, negative = cytotoxicity: at the top concentration. A digest of the protocol: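 Luminescence from CellTiter-Glo, read by CCD camera after a 15 min room-temperature incubation, served as the viability signal. Reporter Schwann cells (S16 Pmp22-F2sN) had been treated with pin-transferred compounds for 24 h at 37C.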
In general terms: Quantitative high-throughput screening tests each substance at several concentrations.
In the case of `CCc1ccc(CN(C(=O)c2nc(SC)ncc2Cl)C2CCS(=O)(=O)C2)cc1` (stereo unspecified), the “activity change, negative = cytotoxicity” value is inactive: -4.35%.
The same measure for `CCC(=O)N1c2ccccc2CC1C(=O)N1CCN(c2ccccc2)CC1` (stereo unspecified): inactive: 9.45%; for `Cc1noc(-c2ccccc2OCC(=O)Nc2cccc([N+](=O)[O-])c2)n1`: inactive: 12%.
The same measure for `Cc1ccccc1NC(=O)CC1C(=O)NCCN1C(=O)c1cccc(Cl)c1` (stereo unspecified): inactive: 17.4%.
The same measure for `COC(=O)CCc1sc(Nc2ccc(OC)cc2)nc1-c1ccc(OC)cc1`: inactive: 7.09%; for `CC(=O)c1ccc(N2CCN(C(=O)NCc3noc4ccc(C)cc34)CC2)cc1`: inactive: 1.68%; for `CCOC(=O)c1ccccc1NC(=O)CSc1nc2ncccc2[nH]1`: inactive: 9.17%.
Take `CCN1c2ccccc2-c2nc(SCC(=O)Nc3ccc(C)c(Cl)c3)ncc2S1(=O)=O`: the “activity change, negative = cytotoxicity” value was inactive: 1.77%.
The same measure for `COc1ccc(N2CCN(C(=O)CCS(=O)(=O)c3cc4c(cc3Cl)NC(=O)CO4)CC2)cc1`: inactive: 15%.
For the compound `CC(=O)c1cc(C(=O)Nc2cccc(C)c2)c2ccccn12`, the “activity change, negative = cytotoxicity” value is inactive: 6.27%.
In the case of `COc1ccc(-c2nnn3c2nc(N2CCCC(C)C2)c2ccccc23)cc1` (stereo unspecified) it was inactive: 3.54%.
With `Cc1ccc(C)c(N(C)C(=O)C2CCN(S(=O)(=O)c3cccc4nsnc34)CC2)c1`, the “activity change, negative = cytotoxicity” value is inactive: 1.08%.
Take `CCOC(=O)C1CCCN(S(=O)(=O)c2ccc3[nH]c(=O)ccc3c2)C1` (stereo unspecified): the “activity change, negative = cytotoxicity” value was inactive: -0.23%.
In the case of `Cc1ccc(S(=O)(=O)NCc2nc3nc(C)cc(C)n3n2)c(C)c1` it was inactive: -0.751%; in that of `Cc1ccc(NC(=O)c2cc(S(=O)(=O)N3CCOCC3)c(Cl)cc2Cl)cc1`, inactive: -13%.
The same measure for `COCCNC(=O)CCC(=O)NNc1nc2ccccc2c2nc(-c3ccccc3)nn12`: inactive: 14.4%; for `Clc1ccccc1-c1nc(Nc2ccccc2)nc2ccc(Br)cc12`: inactive: -1.51%.
In the case of `CCOc1ccc(NC(=O)CSc2ncc3c(n2)-c2ccccc2N(C)S3(=O)=O)cc1` it was inactive: 10.5%; in that of `CCc1ccc(CNC(=O)c2ccc(CSc3nc4ccncc4n3Cc3ccccc3)cc2)cc1`, inactive: -20.8%; in that of `CCC(Oc1ccccc1)C(=O)Nc1nnc(S(=O)(=O)Nc2ccccc2)s1` (stereo unspecified), inactive: -2.03%.
For the compound `Cc1cc(C)cc(NC(=O)C2CCN(S(=O)(=O)c3cccc4nonc34)CC2)c1`, the “activity change, negative = cytotoxicity” value is inactive: 1.85%.
The same measure for `COc1ccc(CNC(=O)Nc2cn(CC(C)C)c(=O)c3ccccc23)c(OC)c1`: inactive: -4.81%; for `Cc1oc2cc3oc(=O)c(CC(=O)NCc4ccccc4)c(C)c3cc2c1C`: inactive: 0.206%.
The same measure for `Cc1ccc(-n2c(=O)c3sc4ccccc4c3n(C)c2=O)cc1F`: inactive: 0.649%; for `COc1cccc(NC(=O)c2oc3ccccc3c2NC(=O)c2ccc(F)c(F)c2)c1`: inactive: -1.86%; for `O=C(CSc1nc2nccnc2c(=O)n1CCc1c[nH]c2ccccc12)Nc1ccccc1`: inactive: 9.37%.
The same measure for `O=C(NC1CC(=O)N(c2ccccc2)C1)C(c1ccccc1)c1ccccc1` (stereo unspecified): inactive: -0.96%; for `COC(=O)c1c(NC(=O)/C(C#N)=C/c2ccc(OC)cc2)sc2c1CCC2`: inactive: 0.728%; for `CCc1ccc(C(=O)c2cn(CC(=O)Nc3cc(OC)ccc3OC)c3nc(C)ccc3c2=O)cc1`: inactive: -17.2%.
For `Cc1ccc(C(=O)N2CCCCC2)cc1NC(=O)c1nsc2ccccc12`, the “activity change, negative = cytotoxicity” value was inactive: 3.22%.
In the case of `Cc1c(CCNC(=O)c2ccc(Br)o2)sc2nc(-c3ccc(Cl)cc3)nn12`, the “activity change, negative = cytotoxicity” value is inactive: -23.1%.
In the case of `COc1ccc(S(=O)(=O)N2CCC(N3CCN(Cc4ccc(F)cc4)C(=O)C3=O)CC2)cc1` it was inactive: -0.213%; in that of `COc1ccc(C(CNC(=O)c2ccc(F)cc2)N2CCCC2)cc1` (stereo unspecified), inactive: 5.2%.
In the case of `Cn1c(=O)c2c(nc(SCC(=O)Nc3ccc(F)cc3)n2Cc2ccccc2F)n(C)c1=O` it was inactive: 3.48%; in that of `CCCSc1ncc(Cl)c(C(=O)Nc2c(C(=O)c3ccc(C)cc3)oc3ccccc23)n1`, inactive: 0.485%; in that of `CCC(=O)N1c2ccc(S(=O)(=O)CCC(=O)N3CCN(c4cc(C)ccc4C)CC3)cc2CC1C` (stereo unspecified), inactive: -11.7%.
The same measure for `CCOc1ccc2nc(NC(=O)c3nc(SCc4ccccc4C)ncc3Cl)sc2c1`: inactive: 2.18%; for `CC(C)CN1CCc2nc(Nc3ccc(F)cc3F)ncc2C1`: inactive: -1.03%.
Turning to `O=C(Cc1cccs1)Nc1c(C(=O)Nc2ccc(F)cc2)oc2ccccc12`, the “activity change, negative = cytotoxicity” value was inactive: 3.93%.
In the case of `COc1cc(/C=C(\C#N)c2nc3ccccc3[nH]2)ccc1OCc1ccccc1F` it was inactive: 4.65%; in that of `COc1ccc(-n2c(SCC(N)=O)nc3c(oc4ccccc43)c2=O)cc1`, inactive: 16.8%.
The same measure for `Cc1ccc(-c2onc(C)c2C)cc1S(=O)(=O)N1CCOc2ccc(Cl)cc21`: inactive: -1.96%; for `CC(C)(C)OC(=O)N1CCc2nc(N3CCN(c4ncccn4)CC3)ncc2C1`: inactive: 0.142%.
The same measure for `COc1ccc(CCC(=O)NCc2ccc3c(c2)CCN3C(=O)c2ccccc2)cc1`: inactive: 3.87%.
`COc1c(Cl)cc(C(=O)N(Cc2ccccc2F)C2CCS(=O)(=O)C2)cc1Cl` (stereo unspecified): the “activity change, negative = cytotoxicity” value was inactive: 0.164%.
In the case of `CCC(Sc1nc(-c2ccc(F)cc2)nc2c1Cc1c(CO)cnc(C)c1O2)C(=O)Nc1ccc(F)cc1` (stereo unspecified) it was inactive: 2.79%; in that of `CCOc1ccc(CCNC(=O)c2cc3c(=O)n(CC)c4ccccc4c3s2)cc1OCC`, inactive: 11.5%.
The same measure for `CCc1cccc(NC(=O)CSc2nncn3c2cc2sccc23)c1`: inactive: -0.262%.
In the case of `COc1ccc(N2CCN(c3ccc(-c4nc(-c5ccccc5)no4)cc3[N+](=O)[O-])CC2)cc1`, the “activity change, negative = cytotoxicity” value was inactive: 9.02%.
As to `COc1cc2[nH]c(=O)n(Cc3ccc(C(=O)N4CCN(c5ccc(Cl)cc5)CC4)cc3)c(=O)c2cc1OC`, the “activity change, negative = cytotoxicity” value is inactive: -9.25%.
In the case of `O=C(Nc1cccc(Cl)c1Cl)c1ccc2c(c1)N(Cc1cccc(Cl)c1)C(=O)c1ccccc1S2=O` (stereo unspecified) it was inactive: 2.24%; in that of `Cc1ccc(N(Cc2cccs2)C(=O)C(C)Oc2ccc(Cl)c(C)c2)cc1` (stereo unspecified), inactive: -20%.
The same measure for `Cc1ccc(C)c(NC(=O)Cn2nc(C)c3nn(-c4ccc(Cl)cc4)c(C)c3c2=O)c1`: inactive: -1.66%; for `COc1ccc(CNC(=O)CCS(=O)(=O)c2cc(Br)cc3c2N(C(C)=O)C(C)C3)cc1` (stereo unspecified): inactive: 9.81%.
As to `Cn1cnc(S(=O)(=O)N2CCCC(C(=O)NCc3ccc(Cl)cc3)C2)c1` (stereo unspecified), the “activity change, negative = cytotoxicity” value is inactive: 8.57%.
For the compound `CCN(CC)S(=O)(=O)c1ccc2c(c1)N(CC(=O)N1CCN(c3ccc(OC)cc3)CC1)C(=O)CO2`, the “activity change, negative = cytotoxicity” value is inactive: 11.1%.
In the case of `Cc1ccccc1Nc1c(-c2cccc(Cl)c2)nc2ncccn12` it was inactive: 4.67%; in that of `COc1ccc(S(=O)(=O)NCCSc2nnnn2-c2ccccc2)cc1OC`, inactive: -22.7%; in that of `CCN(Cc1ccccc1)C(=O)c1cc(-c2ccccc2)n[nH]1`, inactive: -6.75%.
The same measure for `Cc1ccc(Cl)cc1N1CCN(C(=O)CN2C(=O)COc3ccc(S(=O)(=O)N4CCCCCC4)cc32)CC1`: inactive: -4.42%; for `CC(C)CCNC(=O)c1ccc2c(c1)NC(=O)C(C(C)C)N2` (stereo unspecified): inactive: 13.4%.
